Laboratory results published in article PMC12040169 (PLOS Biology, 2025).
The other results are listed elsewhere or left out.

Tested on: T1, C. trachomatis L2/434/Bu expressing GFP (CTL2-GFP)
T1 construct: L2/434/Bu GFP intracellular growth in HeLa cells
Set-up: species or system HeLa; C. trachomatis total inclusion area by high-content imaging, normalised to DMSO
Details: total inclusion area; 28.5 h, 10 µM; inhibitor
How it was run: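 Post-fluorescence-read fixation, DNA staining with Hoechst and high-content imaging; GFP inclusion area and number per well, and nuclei counts, used as proxies for bacterial growth and host viability.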

Structure (SMILES)	% of control remaining
Cn1cncc1C(=O)NC1Cc2ccccc2C1 [CBK200362]	111.427
CC(NC(=O)/C(=C\c1ccc(Cl)cc1)NC(=O)c1ccco1)C(=O)O (centres unmarked) [CBK263617]	97.6232
Cc1ncsc1CCOc1nccnc1N1CCCC1 [CBK115752]	75.5201
COc1cccc(-c2ccc(C(=O)NCCNC(C)=O)c(N3CCOCC3)n2)c1 [CBK076465]	96.4428
CCc1nnc(NC(=O)c2cc(OC)c(OC)c(OC)c2)s1 [CBK058342]	62.5224
O=C1CC(C(=O)N2CCN(C(=O)c3ccco3)CC2)c2ccccc21 (centres unmarked) [CBK144464]	101.287
O=C(CSc1ncccn1)Nc1sc2c(c1C(=O)Nc1ccccc1)CCCC2 [CBK265939]	66.7421
CC(=O)N(C)Cc1cccc(Nc2ncnc3c2cnn3CCO)c1 [CBK305979]	69.0386
CCc1nc2ccc(C(=O)NCCCN3CCCC3=O)cn2c1N(C)C(=O)COc1ccccc1 [CBK145855]	98.1691
COc1ccc(C(=O)Nc2ccccc2)cc1NC(=O)c1cc(C(F)(F)F)cc(C(F)(F)F)c1 [CBK263465]	92.6103
O=C(NCCN1CCCC1)c1ccc2nc[nH]c2c1 [CBK153311]	109.549
COc1cccc(CN2CCC3(C2)c2[nH]c4c(C)cccc4c2CCN3C(C)=O)c1 (centres unmarked) [CBK039662]	68.9502
Cn1c(C(=O)N2CCc3ccccc32)cc2ccccc21 [CBK200406]	75.8361
Nc1ncc(-c2cccs2)nc1-c1ccc(F)c(Cl)c1 [CBK063990]	66.8912
N=c1n(CC(=O)c2ccc(Br)s2)c2ccccc2n1Cc1ccccc1 [CBK262482B]	95.7783
NC(=O)c1ccccc1NC(=O)C1CCC(C(=O)Nc2ccccc2C(N)=O)CC1 (centres unmarked) [CBK268716]	82.5438
O=C(O)CNC(=O)CNC(=O)Cn1c(-c2ccccc2)cc2ccccc21 [CBK286550]	76.9298
COc1ccc(NS(=O)(=O)c2cc(C(=O)O)sc2Br)cn1 [CBK297943]	65.0908
Nc1nc(OCCOc2ccccc2)cnc1-c1ccc2c(c1)OCO2 [CBK145097]	107.109
COc1ccc2cc(C)c3n[nH]c(=O)n3c2c1 [CBK283765]	79.6962
Cn1c(-c2ccccc2)c(C(=O)C(N)=O)c2ccccc21 [CBK288465]	109.099
Cc1cc(CNS(=O)(=O)c2ccc(-c3ccon3)s2)no1 [CBK062276]	83.4521
O=S(=O)(Nc1nnn[nH]1)c1ccc(Cl)c(Cl)c1 [CBK062387]	71.6092
CN1CCN(C(=O)c2cccc(NS(=O)(=O)c3cc(Cl)sc3Cl)c2)CC1 [CBK038966]	97.0227
Nc1cc2cccnc2nc1-c1cccnc1 [CBK067602]	115.207
CCc1cc(CNC(=O)C(c2ccccc2)N2CCC(C)CC2)on1 (centres unmarked) [CBK281592]	97.1687
O=S(=O)(NCC1CCCO1)c1ccc2oc3ccc(S(=O)(=O)NCC4CCCO4)cc3c2c1 (centres unmarked) [CBK265914]	66.7557

Structure (SMILES)	% of control remaining
N#Cc1c(NC(=O)CSc2ncnc3c2cnn3-c2ccccc2)sc2c1CCCC2 [CBK269478]	92.2067
c1cncc(CNc2cccc(OCCOc3nccnc3N3CCNCC3)c2)c1 [CBK200008]	40.7251
O=C(Cn1c(C2CCOCC2)cc2cccnc21)N1CCCCCC1 [CBK284674]	42.915
Cc1cccc(C(=O)N2CCCCC2CN(C)C)c1 (centres unmarked) [CBK074171]	52.5009
O=C(CNCc1ccc2c(c1)OCO2)NCc1ccc2c(c1)OCO2 [CBK074763]	128.499
COC(=O)c1cn(-c2ccc(Cl)cc2)c(=O)c2ccccc12 [CBK116489]	69.83
COc1ccc(-c2cc(C(=O)Nc3cccc(C(=O)O)c3)cnc2-c2ccc(F)cc2)cn1 [CBK038064]	100.332
Cc1cc(C)cc(NC(=O)Cn2cnc3c(sc4ccccc43)c2=O)c1 [CBK287807]	88.1512
Cn1cnc2cc(NC(=O)NCCN3CCCC(CO)C3)ccc21 (centres unmarked) [CBK307582]	69.1831
CC(NC(=O)C1CCN(Cc2ccccn2)CC1)c1cccc2ccccc12 (centres unmarked) [CBK148662]	59.782
O=C(NCc1cccs1)C1(Cc2ccccc2-c2coc3ccccc23)CCOCC1 [CBK286310]	79.8057
COc1cnc(C(=O)NCCc2ccc(S(=O)(=O)NC(=O)NC3CCCCC3)cc2)cn1 [CBK011761]	74.1167
O=C(Nc1cc(Cl)ccc1O)c1ccc(C(=O)Nc2cc(Cl)ccc2O)cc1 [CBK266784]	101.652
CC1(C)NC(=O)N(CC(O)CN(c2cc(Cl)ccc2Cl)S(=O)(=O)c2ccccc2)C1=O (centres unmarked) [CBK033672]	100.65
Cn1cc(NC(=O)c2ccc(CN3CCCC3=O)cc2)cn1 [CBK306322]	35.6106
CC(C)(C)OC(=O)N1CCN(Cc2ccc(N)c3ccccc23)CC1 [CBK084530]	93.9482
O=C(NCCSCc1c(F)cccc1Cl)Nc1cccc(Cl)c1 [CBK268574]	71.9763
Cc1ccc(CSc2cnc(C(C)(C)C)nc2)cc1 [CBK019832]	52.8407
CC1CCN(S(=O)(=O)c2cc(S(=O)(=O)N3CCC(C)CC3)c3cccc4c3c2NC4=O)CC1 [CBK263716]	95.5255
CC(C)c1cc(C(=O)N2CCNC(c3ccccc3)C2)nc2ncnn12 (centres unmarked) [CBK306533]	69.6057
COc1ccc(C(=O)Nc2c(Cl)ccc3nsnc23)cc1 [CBK270252]	106.67
CC(=O)c1ccc(NC(=O)CSc2nnc(-c3ccncc3)s2)cc1 [CBK269183]	100.308
COc1ccccc1NC(=O)C(=O)NCc1cccnc1 [CBK287724]	87.0432
CN(Cc1cnn(C)c1)C(=O)COCc1nc2cc(F)ccc2[nH]1 [CBK306687]	95.4443
COc1ccccc1CC(=O)NNC(=O)c1ccco1 [CBK262956]	115.285
COc1ccc(Oc2cncc(OC3CCN(CCCn4c(=O)[nH]c5ccccc54)C3)n2)cc1OC (centres unmarked) [CBK084406]	96.5667
Cc1ccc(-c2nc3ncccc3o2)cc1NC(=S)NC(=O)c1ccc(-c2cccc([N+](=O)[O-])c2)o1 [CBK268294]	85.3595

Structure (SMILES)	% of control remaining
COc1ccc(COC(=O)C2CC(=O)N(Cc3ccc(C)cc3)C2)cc1 (centres unmarked) [CBK296624]	71.254
CCC(=O)c1cc(F)c(N2CCN(C(=O)c3cccs3)CC2)cc1C [CBK033892]	58.7784
O=C(NCc1ccc2c(c1)OCO2)c1cnc(-c2ccc(Cl)cc2)c(-c2ccco2)c1 [CBK037547]	38.3636
CCN(CC)C(=O)C1CCCN(C(=O)NCCc2c[nH]cn2)C1 (centres unmarked) [CBK156124]	93.132
COc1ccc(-c2c(-c3ccc(F)cc3)[nH]c3[nH]c(=O)[nH]c(=O)c23)cc1 [CBK288232]	68.6613
O=S(=O)(CCOc1ccccc1)N(CCOc1ccccc1)C1CCCCC1 [CBK022003]	33.1902
Cn1c(=O)n(CC(=O)NC23CC4CC(CC(C4)C2)C3)c2cccnc21 [CBK283795]	84.2647
CC(=O)Nc1ccc(S(=O)(=O)NC2(C(F)(F)F)NC(=O)N(C3CCCC3)C2=O)cc1 (centres unmarked) [CBK268100]	70.1395
Cc1cc(C)c(NC(=O)CSCC(=O)Nc2ccc3ccccc3c2)c(C)c1 [CBK264856]	99.9368
Cc1nc(NCCCn2ccnc2)c2ccccc2n1 [CBK051987]	109.467
CCOC(=O)c1cc(C(N)=S)c(C)nc1C(F)(F)F [CBK028734]	61.2746
Nc1nnc(CSCc2ccc(Cl)cc2Cl)s1 [CBK263471]	92.7838
Cc1ccn2c(C(=O)N(C)CCc3noc(C(C)C)n3)nnc2n1 [CBK306670]	63.2386
O=C(Nc1ccc(N2CCOCC2)cc1)c1ccc(-n2cnnc2)cc1Cl [CBK269889]	74.1941
O=C(Nc1cccnc1N1CCNCC1)c1ccc(-c2cccc(C(F)(F)F)c2)o1 [CBK034119T]	105.322
CC(=O)N1c2ccc(-c3cn4ccc(C)cc4n3)cc2CC1C (centres unmarked) [CBK285191]	90.9566
Cc1nc(C2CCCN(C(=O)CCc3ccno3)C2)c2sccn12 (centres unmarked) [CBK285237]	104.174
Cc1nc(-c2ccccc2)sc1CNC(=O)/C=C/c1c[nH]cn1 [CBK092368]	117.343
Cc1ccccc1Cc1cccc(C2CCN(C(=O)c3ccc(F)cc3)CC2)n1 [CBK286140]	95.0447
COc1ccc(CSc2nnc(-c3ccncc3)n2C)cc1[N+](=O)[O-] [CBK269638]	72.8415
Cc1ccc(-c2nccnc2OCCn2cccc2)cc1C [CBK106864]	87.2079
CCn1c(C(CC(C)C)NC(=O)c2ccco2)nc2cccnc21 (centres unmarked) [CBK283523]	98.7186
CC(C)c1nsc(NS(=O)(=O)c2cc(OCC(F)(F)F)ccc2OCC(F)(F)F)n1 [CBK051262]	28.0268
O=C(CNC(=O)c1ccccc1Cl)Nc1ccc(Br)cc1C(=O)c1ccccc1 [CBK087691]	0
COc1ccc(Cc2nc(-c3ccccc3)c3ccccc3n2)cc1F [CBK291176]	90.8546
CCN(CC)CCN(Cc1ccc2c(c1)OCO2)C(=O)Nc1cccc(NC(C)=O)c1 [CBK159042]	81.6856
